B1: LC3A_free_8_2548 (protein)
chain: DMEKFVNEVLKLLDEFEEELRKAAKELGLSELDINDLELLVGETIMEVIEKAEEGPEAVLKALKEGLEEIIKEAKELSEELAKEVKKLAEELLKKVEELK
B2: LC3A_free_46_2396 (protein)
chain: IKGYIDILLKGATEEQAKEIAEYMEAKIKEEAAKKGVNVKIEVKIEKDEDGDIFINIEVEMDTDDEQVALDILDAAMDGGLEKAKELGIKASAIISVEKT
B3: LC3A_3_1625 (protein)
chain: LEEEIEETEKELRAAGWSEETLEALRETVELLLEKGYEEAARTLLEEMRALKDLPSEIALAMIEEVRRVVLEEDLDEEELIERIREIARTARNEGEIEEL
B4: LC3A_28_923 (protein)
chain: MSPEEIKKEIREKAEEAIEKGEEVLIEITIDGSISLEEALEIMEELEEEVKKLSEAGIKVYVVVDLDNVSEEVEKAIAERLDEIEEKYPLVSSIIALDEE
B5: LC3A_141_366 (protein)
chain: MTVKLEYEFTAETVEEAVEKMEEIEKEILEKAKEAGAKRAKIKVTIKYTSKDGKEKKEEKIEEETTFENLDLVLDGLLVEIASLASKGKVEVKIEVTLET
B6: LC3A_3_1456 (protein)
chain: VAELKAELTAVLTANGADAATIAAGNALLDALAAKGYEEAMQTVLDEVKKMADVPADILLDMFNDLLTIVNTEDLSEEELIAEIKREAAAAKNEAEIIEL
B7: LC3A_free_8_2521 (protein)
chain: MNQEFVDKAVEILDELEEKLVAYLKSKGASELEILEAELLIGSIIAEVISLENESPEEILKAIEDGLKELVEELSEYKEEVTELADEALKKIKEAKKKLE
B8: LC3A_3_1678 (protein)
chain: MEKLVEEALKTIKETIKDEEVQKLFEEAVKLLAERGLEEQIKALAELVKEMKDLPVEEQLEFAKYLLEVVKKAKGSREEAAKRVSEEIRTIKNDIEIEEL
B9: LC3A_28_1233 (protein)
chain: MTPEEIAQRLIDEAKKKIAAGEKVIVIKITAEEAKPENVDAIVAAIKEIAALANAAGGVAIIIDLDSKVDEESRNKIIDAAEEAEKEYPNVTIIIAISDD
B10: LC3A_free_39_2248 (protein)
chain: SAEELAAARAALAAVAATLDPEAQAAAAELAAALADDPEALRIVTEGLRRLQAEGGDVLAFLQELLALVREAQAAGLSPEELAERLRELAEDFLNLLPLD
B11: LC3A_28_641 (protein)
chain: MEIEKKLEEALKKAKEAREKGEATVIELTLDGNATQEDVEKVIKALEEIAKILESVPGSAIIINVTGNVKQEHIDKLADAAEEIEKKYPNVTVILALEEK
B12: LC3A_28_1264 (protein)
chain: AATDAAIAAFNAAVDAALAAGEAATITLKVSADATQADIDKINEALKANAAKLASIPGQSIIIDVAGGVAQENIDKLAEAAEEIEEKTKNVTVIIALDEN
B13: LC3A_127_217 (protein)
chain: LLEEALKKLEEAEKLLLELVEDDSIDREEALKKAKKLLKEALKLAKKAGAPEEVLKDLEEAEELVEEMFELDEEERKEAAERASLLVDGAIIEIESILLK
B14: LC3A_28_1280 (protein)
chain: SEIEKEIEAALKKAEEARKKGEPVVVTIKVPGNATQEEIEKVIEGLEKIAEILKDIPGQAIIIDVDSGVKQEHIDKLLDKAEEIEKKYPNVTVIIALDED
B15: LC3A_28_894 (protein)
chain: SKELEKAEKALEEARAALAAGSTEPLVLEVTAPSTEEDTEKFLELLEEIAEVGSQRPGVSIVIDVPESVSQENIDKVIDKAEELEEKYPNVTIIIALPEN
B16: LC3A_3_1565 (protein)
chain: LEEERERVLKALREAGHSEEVLKAVNEALEKLLEKGYEEAAKTFIEEMLELVDAPDEILLDAANEVLELIETSDLDEETLTEEIKEIARLAKIEAEMDKL
B17: LC3A_3_1567 (protein)
chain: SEELIKEMVEKLKEAGFSEEVIEAAREALKALAAKGAEEAAEIVLETLLKLKDAPEELKLDFLADVKALVETSKASLEELKKQIEELATTYLNESEIEEL
B18: LC3A_3_1578 (protein)
chain: SEERIEEAVERLRAAGLSEEVIEAAREVLEALLERGWEEAAELVVEGLLRLADAPEELLLEALEELLEVAEDESLSEEEALERIKEILSTAEAESEIIEL
B19: LC3A_free_8_2491 (protein)
chain: KSQELAKLASDELDKLEEELTKKAKELGVSPLDILELSLEIGSTIAEIYTKSDESPQAILDTLKEGLKRIIELAKEISEELAKKAEELSKEVLKKVEEKI

Over roughly 2,300 sequences, “median log2 fold change of GCK-ALFA target abundance (FLAG IP / Myc IP barcode read proportion)” has its median near 0.095; the lowest 2% begin near -0.47. Some of the results follow.

Here are results for 19 molecules from the supplement of paper PMC12632987.

The experiment concerns the target MAP1LC3A, Q9H492. Put plainly: median log2 fold change of GCK-ALFA target abundance (FLAG IP / Myc IP barcode read proportion) (log2 ratio); each designed protein is fused to an ALFA-tag nanobody in HEK293 cells to bring the named protein to FLAG-tagged glucokinase (GCK); Myc marks an untargeted standard; higher = target protein stabilised (more abundant). The settings on record: target protein: 3xFLAG-MCP-GCK-ALFA reporter; HEK293 landing pad (RPLP). The procedure, abridged: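 Binders fused to an ALFA nanobody were recombined as a library into HEK293 landing-pad cells, which were induced with 2 μg mL^−1 doxycycline and then transfected to express a FLAG-tagged target and a Myc-tagged standard. After 48 h, circular RNA barcodes recovered by anti-FLAG and anti-Myc immunoprecipitation of lysates were reverse transcribed, amplified and sequenced. Each binder's target abundance is the median log2 ratio of FLAG to Myc barcode read proportions, from barcodes present at ≥10^−7 in both replicates, binders carrying ≥3 barcodes per replicate, a 10^−6 pseudocount and pooled replicates.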
Take B1: the “median log2 fold change” value was -0.0101.
With B2, the “median log2 fold change” value amounted to 0.0592.
In the case of B3 it was 0.184; in that of B4, -0.272.
Turning to B5, the “median log2 fold change” value worked out at 0.243.
The value for B6 was 0.238; that for B7 was -0.131.
In the case of B8 it was 0.242; in that of B9, 0.277.
In the case of B10 it was 0.192; in that of B11, 0.16.
Regarding B12, the “median log2 fold change” value came to 0.263.
With B13, the “median log2 fold change” value is -0.0169.
The value for B14 was 0.0554; that for B15 was -0.226.
As for B16, the “median log2 fold change” value turned out to be 0.246.
On to B17, for which the “median log2 fold change” value is 0.339.
In the case of B18 it was -0.0331.
The value for B19 was 0.123.
